Data as given in PubChem BioAssay AID686978 (National Center for Advancing Translational Sciences (NCATS), 2013).
Screen size: about 420,000 compounds; about 64,000 (15%) were called active. This list was built around the results that the source calls inconclusive (neither active nor inactive); the mix of calls is not that of the screen. The call rests on the fitted dose curve; in most records, active means well fitted inhibition curve with a large enough effect; inconclusive means small, poorly fitted or top-dose-only effect; inactive means flat fitted curve, though single readings scatter. Potencies of inconclusive entries are left out as doubtful fits.

test: qHTS for Inhibitors of human tyrosyl-DNA phosphodiesterase 1 (TDP1): qHTS in cells in absence of CPT; settings: DT40 Tdp1-/- hTDP1 cells, no CPT, ATP luminescence, 48 h; activity change, negative = growth inhibition: at 46.2 µM (top of the series); further: nearly all actives have a fitted effect of over 55% in size
How it was run: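 Camptothecin absent (DMSO only). Human TDP1-complemented DT40 knockout cells, 400 cells/well, 37 °C for minimum 48 hr; ATP measured via CellTiter-Glo, 30 min dark incubation, luminescence.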
On the % scale 0 is the no-effect control and ±100 the full control effect; potency means the concentration at half of the fitted maximal effect; tags describe the fitted curve by direction and shape.

| Compound | Potency | activity change, negative = growth inhibition |
| --- | --- | --- |
| Cc1cc(-c2ccc(C)c(S(=O)(=O)NC3CCCCC3)c2)on1 | inconclusive [inhibitor, single point] | – |
| CCn1cc(C(=O)C(F)(F)F)c2ccccc21 | – | inactive: -8.29% |
| COc1ccc(S(=O)(=O)Nc2cc3c4c(oc3c3ccccc23)CC(C)(C)CC4=O)cc1 | inconclusive [inhibitor, single point] | – |
| CN(c1ccccc1)S(=O)(=O)c1cccc(NC(=O)c2cc3ccccc3oc2=O)c1 | inconclusive [inhibitor, partial curve] | – |
| CCOc1ccc(-n2ccnc2SCC(=O)Nc2nc3ccc(C)cc3s2)cc1 | – | inactive: -23.4% |
| CCC1Oc2ccc(C)cc2N(CC(=O)N(Cc2cccnc2)Cc2cccc(F)c2)C1=O (stereo not drawn) | inconclusive [inhibitor, single point] | – |
| O=S(OCCN1CCOCC1)C(c1ccccc1)c1ccccc1 (stereo not drawn) | inconclusive [inhibitor, single point] | – |
| O=C(CN1CCN(C(=O)c2cccc(S(=O)(=O)N3CCCC3)c2)CC1)Nc1ccccc1Cl | inconclusive [inhibitor, partial curve] | – |
| Cc1ccccc1-n1nc(C(=O)c2cccs2)cc(-c2nc3ccccc3[nH]2)c1=N | active: 7.31 µM | – |
| O=C(c1ccc(O)c(Cl)c1)N1CCN(S(=O)(=O)c2ccccc2)CC1 | inconclusive [inhibitor, single point] | – |
| Cc1ccc(-c2ccc(CN3C(CC(C)C)C(=O)N(Cc4cn(CC5CCCCC5)nn4)CCS3(=O)=O)cc2)cc1 (stereo not drawn) | active: 16.4 µM | – |
| CN(C(=O)COC(=O)c1ccc(Br)c([N+](=O)[O-])c1)c1c(N)n(Cc2ccccc2)c(=O)[nH]c1=O | – | inactive: -25.2% |
| O=C(NCCNC(=O)c1ccc(Cl)cc1Cl)c1ccc(Cl)cc1Cl | – | inactive: -7.55% |
| C/C(=N\NC(=O)c1ccc(OC2CCCC2)cc1)c1ccc(C)s1 | – | inconclusive: -33.8% [inhibitor] |
| CCCCc1nnc(NC(=O)c2oc3ccc(OC)cc3c2C)s1 | inconclusive [inhibitor, single point] | – |
| COc1ccc(C(=O)CSc2nnc(CNc3ccc(F)cc3)o2)cc1 | inconclusive [inhibitor, single point] | – |
| CC1(C)C(=O)N(CC(=O)Nc2cccc(F)c2)c2ccc(S(=O)(=O)N3CCCCC3)cc21 | inconclusive [inhibitor, single point] | – |
| O=C(N/N=C/c1ccc(F)cc1)c1ccccc1 | – | inactive: -6.4% |
| C=CCn1c(SCC(C)=O)nc2sc3c(c2c1=O)CCC3 | inconclusive [inhibitor, single point] | – |
| CCOc1cc(-c2nnc(SCC(=O)NC3CCCC3)nc2-c2ccc(OC)c(OCC)c2)ccc1OC | inconclusive [inhibitor, single point] | – |
| C#CCOC(=O)Nc1ccc(=O)n(Cc2c(Cl)cccc2Cl)c1 | – | inactive: 0.989% |
| CN(C)c1ccc(CC(=O)N2CCCC(c3cc(C(=O)Nc4ccc(C(C)(C)C)cc4)no3)C2)cc1 (stereo not drawn) | inconclusive [inhibitor, full curve, poor fit] | – |

| Compound | Potency | activity change, negative = growth inhibition |
| --- | --- | --- |
| CC(C)Cn1c2c(c(O)c(C(=O)Nc3ncccc3O)c1=O)CCCC2 | inconclusive [inhibitor, single point] | – |
| OC1(c2ccc3ccccc3c2)CCN(Cc2ccccc2)C1 (stereo not drawn) | inconclusive [inhibitor, single point] | – |
| O=C(N/N=C/c1cccnc1)c1cccs1 | – | inconclusive: -32.9% [inhibitor] |
| CC1CCCN(CCCNC(=O)c2coc3nc4ccccc4nc23)C1 (stereo not drawn) | – | inactive: -6.76% |
| CCC(CO)Oc1cc(NCc2cccnc2)c2ncn(C(C)C)c2c1 (stereo not drawn) | – | inactive: 4.64% |
| Cc1ccc(Cl)cc1-n1c(=O)c2sc3ccccc3c2n(Cc2ccccc2)c1=O | active: 5.8 µM | – |
| Cc1cc(N2CCN(C)CC2)nc2ccc(NC(=O)CCC(=O)NCCC3=CCCCC3)cc12 | inconclusive [inhibitor, single point] | – |
| COC(=O)c1ccc(Sc2ccccn2)c([N+](=O)[O-])c1 | – | inactive: -10.3% |
| C=CCc1cccc2cc(C(=O)NC3=C(C#N)CCC3)c(=O)oc12 | inconclusive [inhibitor, partial curve, poor fit] | – |
| CCOc1ccc(NC(=O)CN(C)c2ccc(S(=O)(=O)N(C(C)C)C(C)C)cn2)cc1OCC | inconclusive [inhibitor, single point] | – |
| CN1CCN(c2ncc3nc(-c4ccccc4)c(=O)n(-c4ccccc4)c3n2)CC1 | – | inactive: -29.7% |
| O=C1NN=C(c2ccc(Br)cc2)CC1c1ccc(Cl)cc1 (stereo not drawn) | inconclusive [inhibitor, partial curve] | – |
| Cc1ccc(/C=C2\CCCC3=C2NC(=S)NC3c2ccc(C)cc2)cc1 (stereo not drawn) | inconclusive [inhibitor, partial curve, poor fit] | – |
| Nc1ncnc(Nc2ccccc2)n1 | inactive | – |
| COc1ccc([C@@H]2[C@@H]3C(=O)N(C(C)(C)C)C(=O)[C@@H]3[C@]3(C)C(=O)N(c4ccc(C(F)(F)F)cc4)C(=O)N23)cc1 | active: 16.4 µM | – |
| Nc1ccc(CCNc2ncnc3c2ncn3[C@@H]2O[C@H](CO)[C@@H](O)[C@H]2O)cc1 | inconclusive [inhibitor, single point] | – |
| CCc1nc2c(OCCC3CCCCC3)cccn2c1N(C)C(=O)c1ccco1 | active: 16.4 µM | – |
| CCOCCCNC(=O)C(c1ccc(Cl)cc1)N(Cc1cccs1)C(=O)c1ccccn1 (stereo not drawn) | inconclusive [inhibitor, partial curve] | – |
| COc1ccc(NC(=O)CN(c2ccc([N+](=O)[O-])cc2)S(=O)(=O)c2ccccc2)c(OC)c1 | inconclusive [inhibitor, partial curve, poor fit] | – |
| O=C(CSc1nccn1C1CCCC1)Nc1ccc(C(F)(F)F)cc1 | inconclusive [inhibitor, partial curve] | – |
| Cc1ccc(CNC(=O)C2CCN(C(=O)c3cccc(Cl)c3)CC2)cc1 | inconclusive [inhibitor, single point] | – |
